Results published in the supplement of paper PMC4604168 (melanoma cell lines).
The other results are listed elsewhere or left out. Most values come without repeats; read them as rough.

What was measured:
Assay in all cases: cell count relative to DMSO control; melanoma cells; higher = more viable cells
Conditions in all cases: library dose: low library concentration; 72 h
MZ2-MEL = test system: MZ2-MEL
MeWo = test system: MeWo
RPMI7951 = test system: RPMI7951
RVH-421 = test system: RVH-421
SkMel28 = test system: SkMel28
SkMel2 = test system: SkMel2
SkMel30 = test system: SkMel30
UACC62 = test system: UACC62
WM115 = test system: WM115
WM1716 = test system: WM1716
WM1745 = test system: WM1745
WM3526 = test system: WM3526
WM3619 = test system: WM3619
WM451Lu = test system: WM451Lu
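Also: cell number obtained by counting DAPI-stained nuclei in high-throughput microscope images with image analysis software, screen run in 1,536-well plates.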

Row | SMILES | cell count (MZ2-MEL) | cell count (MeWo) | cell count (RPMI7951) | cell count (RVH-421) | cell count (SkMel28) | cell count (SkMel2) | cell count (SkMel30) | cell count (UACC62) | cell count (WM115) | cell count (WM1716) | cell count (WM1745) | cell count (WM3526) | cell count (WM3619) | cell count (WM451Lu)
1 | Cc1cc(Nc2cc(N3CCN(C)CC3)nc(Sc3ccc(NC(=O)C4CC4)cc3)n2)n[nH]1 [Tozasertib] + C#Cc1cccc(Nc2ncnc3cc(OCCOC)c(OCCOC)cc23)c1 [erlotinib] (first compound 0.006 µM, partner dose 0.8 µM) | 103% | 84.2% | 118% | 88.7% | 103% | 93.4% | 81.4% | 79.8% | 90.7% | 111% | 85.7% | 71.7% | 120% | 98.3%
2 | Cc1cc(Nc2cc(N3CCN(C)CC3)nc(Sc3ccc(NC(=O)C4CC4)cc3)n2)n[nH]1 [Tozasertib] + CC(C)C[C@H](NC(=O)[C@H](Cc1ccccc1)NC(=O)c1cnccn1)B(O)O [Bortezomib] (first compound 0.006 µM, partner dose 0.001 µM) | 87% | 81% | 99.2% | 79.5% | 103% | 93% | 90.4% | 84.9% | 88.4% | 67.6% | 79.2% | 86.1% | 47.6% | 92.4%
3 | CC[C@]1(O)C[C@H]2CN(CCc3c([nH]c4ccccc34)[C@@](C(=O)OC)(c3cc4c(cc3OC)N(C=O)[C@H]3[C@@](O)(C(=O)OC)[C@H](OC(C)=O)[C@]5(CC)C=CCN6CC[C@]43[C@@H]65)C2)C1 [vincristine] + OCc1c[nH]c2ccccc12 [Indole-3-carbinol] (first compound 0.0001 µM, partner dose 0.8 µM) | 84.5% | 69.3% | 45.7% | 77.4% | 59.8% | 86.3% | 57% | 44.8% | 49.6% | 39.9% | 78.6% | 74.4% | 43.5% | 53.6%
4 | Cc1cc(Nc2cc(N3CCN(C)CC3)nc(Sc3ccc(NC(=O)C4CC4)cc3)n2)n[nH]1 [Tozasertib] + COc1ccc(C2=N[C@@H](c3ccc(Cl)cc3)[C@@H](c3ccc(Cl)cc3)N2C(=O)N2CCNC(=O)C2)c(OC(C)C)c1 [Nutlin-3] (first compound 0.006 µM, partner dose 0.1 µM) | 103% | 79.8% | 113% | 99.4% | 69.9% | 91.7% | 94% | 103% | 87.4% | 96.3% | 97.4% | 77.7% | 83.5% | 93.1%
5 | N#CC[C@H](C1CCCC1)n1cc(-c2ncnc3[nH]ccc23)cn1 [ruxolitinib] + C#Cc1cccc(Nc2ncnc3cc(OCCOC)c(OCCOC)cc23)c1 [erlotinib] (first compound 1 µM, partner dose 0.8 µM) | 104% | 90.2% | 92.6% | 89.6% | 107% | 104% | 103% | 121% | 112% | 101% | 65.9% | 88.3% | 96.8% | 88.6%
6 | Cc1cc(Nc2cc(N3CCN(C)CC3)nc(Sc3ccc(NC(=O)C4CC4)cc3)n2)n[nH]1 [Tozasertib] + Cc1ccc(Nc2nccc(N(C)c3ccc4c(C)n(C)nc4c3)n2)cc1S(N)(=O)=O [Pazopanib] (first compound 0.006 µM, partner dose 0.4 µM) | 83.6% | 100% | 84.1% | 106% | 73.9% | 95.7% | 95.3% | 87.9% | 99% | 85% | 104% | 92.3% | 88.7% | 95.5%
7 | CC[C@]1(O)C[C@H]2CN(CCc3c([nH]c4ccccc34)[C@@](C(=O)OC)(c3cc4c(cc3OC)N(C=O)[C@H]3[C@@](O)(C(=O)OC)[C@H](OC(C)=O)[C@]5(CC)C=CCN6CC[C@]43[C@@H]65)C2)C1 [vincristine] + CN(c1ncccc1CNc1nc(Nc2ccc3c(c2)CC(=O)N3)ncc1C(F)(F)F)S(C)(=O)=O [PF562271] (first compound 0.0001 µM, partner dose 0.08 µM) | 91.4% | 80% | 59.8% | 94.7% | 61.5% | 92% | 59.6% | 43.4% | 52.7% | 43.7% | 92.4% | 76.8% | 36.9% | 52.7%
8 | CC[C@]1(O)C[C@H]2CN(CCc3c([nH]c4ccccc34)[C@@](C(=O)OC)(c3cc4c(cc3OC)N(C=O)[C@H]3[C@@](O)(C(=O)OC)[C@H](OC(C)=O)[C@]5(CC)C=CCN6CC[C@]43[C@@H]65)C2)C1 [vincristine] + O=C(O)c1ccc2c(c1)nc(Nc1cccc(Cl)c1)c1ccncc12 [CX4945] (first compound 0.0001 µM, partner dose 0.4 µM) | 91% | 87.6% | 53% | 74.1% | 89.6% | 94% | 60.4% | 68% | 53.9% | 41.7% | 110% | 84.4% | 38.9% | 65.2%
9 | N#CC[C@H](C1CCCC1)n1cc(-c2ncnc3[nH]ccc23)cn1 [ruxolitinib] + O=c1[nH]nc(Sc2ncc([N+](=O)[O-])s2)n1-c1ccc2c(c1)OCCO2 [BI78D3] (first compound 1 µM, partner dose 0.2 µM) | 100% | 91% | 102% | 96.4% | 95.3% | 111% | 99.1% | 131% | 105% | 96.4% | 92.8% | 113% | 93.6% | 85.3%
10 | CC[C@]1(O)C[C@H]2CN(CCc3c([nH]c4ccccc34)[C@@](C(=O)OC)(c3cc4c(cc3OC)N(C=O)[C@H]3[C@@](O)(C(=O)OC)[C@H](OC(C)=O)[C@]5(CC)C=CCN6CC[C@]43[C@@H]65)C2)C1 [vincristine] + NC1(c2ccc(-c3nc4ccn5c(=O)[nH]nc5c4cc3-c3ccccc3)cc2)CCC1 [MK2206] (first compound 0.0001 µM, partner dose 0.4 µM) | 102% | 50.3% | 53.9% | 92.9% | 48.4% | 94.3% | 52.4% | 29.2% | 36% | 39.2% | 83.7% | 54.8% | 44% | 49%
11 | N#CC[C@H](C1CCCC1)n1cc(-c2ncnc3[nH]ccc23)cn1 [ruxolitinib] + CCCS(=O)(=O)Nc1ccc(F)c(C(=O)c2c[nH]c3ncc(Cl)cc23)c1F [PLX4720] (first compound 1 µM, partner dose 0.08 µM) | 82.7% | 95.3% | 104% | 96.5% | 120% | 93.4% | 95.5% | 98.9% | 102% | 104% | 114% | 85.7% | 92.6% | 89.1%
12 | N#CC[C@H](C1CCCC1)n1cc(-c2ncnc3[nH]ccc23)cn1 [ruxolitinib] + Clc1ccc(Nc2nnc(Cc3ccncc3)c3ccccc23)cc1 [vatalanib] (first compound 1 µM, partner dose 2 µM) | 90.1% | 90.1% | 85.4% | 81.3% | 93.5% | 107% | 108% | 124% | 113% | 92.9% | 88.1% | 116% | 93.9% | 84.6%
13 | Cc1cc(Nc2cc(N3CCN(C)CC3)nc(Sc3ccc(NC(=O)C4CC4)cc3)n2)n[nH]1 [Tozasertib] + O=c1[nH]nc(Sc2ncc([N+](=O)[O-])s2)n1-c1ccc2c(c1)OCCO2 [BI78D3] (first compound 0.006 µM, partner dose 0.2 µM) | 102% | 88.5% | 109% | 98.2% | 96.9% | 95.7% | 112% | 91.8% | 95.6% | 85.9% | 95.5% | 104% | 92.5% | 103%
14 | Cc1cc(Nc2cc(N3CCN(C)CC3)nc(Sc3ccc(NC(=O)C4CC4)cc3)n2)n[nH]1 [Tozasertib] + C=C(c1ccc(C(=O)O)cc1)c1cc2c(cc1C)C(C)(C)CCC2(C)C [Bexarotene] (first compound 0.006 µM, partner dose 2 µM) | 96.3% | 91.2% | 88% | 78.8% | 74.3% | 84.4% | 107% | 78.1% | 85.5% | 67.6% | 98.7% | 88% | 82.1% | 83.9%
15 | Cc1cc(Nc2cc(N3CCN(C)CC3)nc(Sc3ccc(NC(=O)C4CC4)cc3)n2)n[nH]1 [Tozasertib] + OCc1c[nH]c2ccccc12 [Indole-3-carbinol] (first compound 0.006 µM, partner dose 0.8 µM) | 101% | 86.7% | 106% | 86.4% | 89.2% | 108% | 81.2% | 78% | 88% | 94.2% | 89.2% | 110% | 84.6% | 96.1%
16 | CC[C@]1(O)C[C@H]2CN(CCc3c([nH]c4ccccc34)[C@@](C(=O)OC)(c3cc4c(cc3OC)N(C=O)[C@H]3[C@@](O)(C(=O)OC)[C@H](OC(C)=O)[C@]5(CC)C=CCN6CC[C@]43[C@@H]65)C2)C1 [vincristine] + Clc1ccc(Nc2nnc(Cc3ccncc3)c3ccccc23)cc1 [vatalanib] (first compound 0.0001 µM, partner dose 2 µM) | 48.1% | 57.4% | 38.6% | 90.7% | 62.4% | 52.9% | 35.9% | 54.3% | 38.2% | 41.5% | 68.9% | 49.8% | 44.5% | 51%
17 | Cc1cc(Nc2cc(N3CCN(C)CC3)nc(Sc3ccc(NC(=O)C4CC4)cc3)n2)n[nH]1 [Tozasertib] + COCC[n+]1c2c(n(Cc3cnccn3)c1C)C(=O)c1ccccc1C2=O [YM155] (first compound 0.006 µM, partner dose 0.0004 µM) | 60.6% | 88.9% | 92% | 69% | 95.2% | 99.2% | 96% | 86.5% | 90.6% | 85.9% | 92.1% | 111% | 112% | 85.5%
